# Assay results taken from the supplement of paper PMC10126150.
# Values marked as one replicate rest on one cluster of the flow cell; about a third of the high ones do not repeat.
# Tested on: ATP
# Assay: switch fluorescence ratio, 500 uM ATP over buffer (Cy3 cluster intensity, sum of 5 cycles each) (fold (ratio)); higher = stronger signal-on switching upon ATP binding; sequences stand for … in TCGTCGGCAGCGTCAGATGTGTATAAGAGACAGTTTTTTTTTTTTTTTTTTTTTTTTT…TC
# Settings: aptamer strand: ATP DNA aptamer (quencher-CACCTGGGGGAGTATTGCGGAGGAAGG + anchor), 100 nM annealed; ATP concentration: 500 uM; one replicate
# In short: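 The quencher-labelled ATP aptamer, at 100 nM, was annealed to Cy3-labelled switching-strand clusters on a modified Illumina MiSeq flow-cell. The clusters were imaged in selection buffer, then after 15 min with 500 uM ATP at 22 °C, and this buffer/ATP cycle ran five times with NaOH stripping and re-annealing between runs. Per-cluster fluorescence ratios, summed target-cycle over summed buffer-cycle Cy3 intensity, were averaged per switch-domain sequence. Clusters outside 100-1000 RFU were excluded.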
# 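Further: ATP exposure 15 min at 22 °C before imaging.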
row,Sequence,switch fluorescence ratio
1,GGGCATTAGT,1.03
2,GGGCCCCGGT,1.04
3,GGGCCCTAAC,1.04
4,GGGCCGCGTG,0.972
5,GGGCCGGCGG,0.987
6,GGGCCGGTTC,1.01
7,GGGCCTAGTG,0.973
8,GGGCCTGTGG,0.974
9,GGGCGAAAAC,1.04
10,GGGCGCAATT,1.02
11,GGGCGCACCG,1
12,GGGCGCACGT,0.983
13,GGGCGCAGGC,0.988
14,GGGCGCTATT,0.984
15,GGGCGGCCCG,0.938
16,GGGCGGTGTG,1.04
17,GGGCGTGGCT,1.02
18,GGGCTCGGGA,0.968
19,GGGCTCTGCT,1
20,GGGCTGACAT,1
21,GGGCTGATAT,1.18
22,GGGCTGCCCG,1
23,GGGCTGCGTA,0.968
24,GGGCTGCTAA,0.943
25,GGGCTGGAAC,1.01
26,GGGCTTCCGG,1.05

row,Sequence,switch fluorescence ratio
1,GGGCTTGAAA,1.08
2,GGGCTTGCAT,0.951
3,GGGGAACTAG,1.01
4,GGGGACCCG,1.01
5,GGGGAGACGG,0.994
6,GGGGAGCAGA,1.06
7,GGGGAGGATG,0.915
8,GGGGAGGTCA,0.981
9,GGGGATAGGT,0.996
10,GGGGATCGC,1.02
11,GGGGCATATC,1.04
12,GGGGCATGAA,0.988
13,GGGGCATTTT,1.04
14,GGGGCCCCC,0.987
15,GGGGCCCCT,1.04
16,GGGGCCGAAA,0.963
17,GGGGCG,0.968
18,GGGGCGATCA,1.02
19,GGGGCGCGTT,0.982
20,GGGGCGGTCA,1
21,GGGGCGTTCT,1.08
22,GGGGCTCGAG,1.06
23,GGGGCTTTGA,0.999
24,GGGGGAAAAC,0.946
25,GGGGGAATT,0.955
26,GGGGGATACC,1.41

row,Sequence,switch fluorescence ratio
1,GGGGGCCAAA,1
2,GGGGGCCTTC,1.08
3,GGGGGCTAGC,0.878
4,GGGGGGATT,1.03
5,GGGGGGTAC,1.37
6,GGGGGTGAGC,1.01
7,GGGGGTGGT,0.987
8,GGGGGTGTG,1.01
9,GGGGGTTAAC,0.991
10,GGGGTAACGA,0.973
11,GGGGTAATGA,0.96
12,GGGGTACAC,0.971
13,GGGGTAGCG,0.97
14,GGGGTAGGCT,1.03
15,GGGGTATTCA,1.01
16,GGGGTCAATC,0.977
17,GGGGTCTGGA,1.01
18,GGGGTGCGCT,0.98
19,GGGGTTACA,0.98
20,GGGGTTAGG,1.01
21,GGGGTTCCTA,0.987
22,GGGGTTGCGG,1
23,GGGGTTTGGC,0.979
24,GGGTAAATAC,1.35
25,GGGTAACCCG,1.02
26,GGGTAAGCGA,0.992

row,Sequence,switch fluorescence ratio
1,GGGTAATAGA,0.932
2,GGGTAATGGT,0.98
3,GGGTACCGGG,1
4,GGGTAGAGC,1.08
5,GGGTAGCAAG,1
6,GGGTATGATA,1.03
7,GGGTCACCCA,1.06
8,GGGTCATGG,1.03
9,GGGTCATTCC,1.12
10,GGGTCCCTCC,0.991
11,GGGTCCTAAC,1.02
12,GGGTCCTCAG,1.02
13,GGGTCCTGTG,1
14,GGGTCGAAGG,0.912
15,GGGTCTGATT,1.02
16,GGGTCTTATT,0.996
17,GGGTGAACTA,0.974
18,GGGTGCGTAT,0.948
19,GGGTGTGAAT,1.03
20,GGGTGTGGCC,1.02
21,GGGTTAAAA,1.02
22,GGGTTCTAGC,0.971
23,GGGTTCTGAA,0.974
24,GGGTTGCGGC,1.01
25,GGGTTTCG,1
26,GGGTTTCTAC,0.969

row,Sequence,switch fluorescence ratio
1,GGTAAACGGT,0.964
2,GGTAAACTCG,0.966
3,GGTAAACTGG,0.959
4,GGTAAATATA,1.03
5,GGTAAATTAT,1.01
6,GGTAACGCAC,1.77
7,GGTAACGTGT,0.923
8,GGTAACTGAA,0.989
9,GGTAAGGCCA,1.02
10,GGTAAGTCAG,0.987
11,GGTAAGTTA,1.03
12,GGTAATAATG,1.01
13,GGTAATACAT,1.01
14,GGTAATACGA,1.88
15,GGTAATCCTT,1.02
16,GGTAATGT,0.989
17,GGTACATTCG,1.08
18,GGTACGCGTA,0.921
19,GGTACGTCCG,1.01
20,GGTACTAGCC,1.06
21,GGTACTGA,1.01
22,GGTAGACCGA,1.02
23,GGTAGAGGTG,1.05
24,GGTAGCGACG,0.995
25,GGTAGCGATT,1.03
26,GGTAGCGGCG,0.938

row,Sequence,switch fluorescence ratio
1,GGTAGCGGCT,1.06
2,GGTAGGAT,0.966
3,GGTAGGGCAT,1
4,GGTAGGGCCA,1.03
5,GGTAGTCACG,0.972
6,GGTAGTCATA,1.03
7,GGTAGTCGCG,0.951
8,GGTATACCGT,0.979
9,GGTATACGTG,0.947
10,GGTATCAGGT,0.981
11,GGTATCGAAA,0.954
12,GGTATCGCGA,0.945
13,GGTATGACAG,0.969
14,GGTATGTCGC,1.08
15,GGTATTCAGT,0.997
16,GGTATTGTAC,1.03
17,GGTCAAAATG,0.974
18,GGTCAACAAC,1.05
19,GGTCAAGAGT,0.942
20,GGTCACACCC,1.09
21,GGTCACCCCG,1.02
22,GGTCACGCGC,1.02
23,GGTCAGGCTC,0.992
24,GGTCAGTGCA,0.991
25,GGTCAGTGGA,0.961
26,GGTCATAAAC,1.01

row,Sequence,switch fluorescence ratio
1,GGTCATATGG,0.997
2,GGTCATGATA,0.975
3,GGTCATTTCT,0.961
4,GGTCCAATGA,1.05
5,GGTCCATTAC,1.1
6,GGTCCCCTGC,1.01
7,GGTCCTTTGG,0.99
8,GGTCGACCTT,0.993
9,GGTCGGAAAT,1
10,GGTCGGATAT,1.01
11,GGTCGGGAAT,0.997
12,GGTCGGGCGG,1
13,GGTCGTGCTT,1.02
14,GGTCTAAA,1.02
15,GGTCTAAACA,1.01
16,GGTCTAAATG,1.02
17,GGTCTACTGG,1.01
18,GGTCTAGAGC,1.02
19,GGTCTAGTAT,0.964
20,GGTCTATAAT,0.999
21,GGTCTATGCT,0.984
22,GGTCTATTTG,1.01
23,GGTCTGAGGT,0.928
24,GGTCTGGGCG,0.974
25,GGTCTTCTA,1.01
26,GGTCTTGTGA,0.952

row,Sequence,switch fluorescence ratio
1,GGTCTTTATA,1.02
2,GGTGAAGACG,0.991
3,GGTGACCTCG,0.938
4,GGTGATAATC,1.05
5,GGTGATACCT,1.13
6,GGTGATCCCT,1.05
7,GGTGCACTCA,1.01
8,GGTGCATATC,1.25
9,GGTGCGTCTC,1.01
10,GGTGCGTTGA,1
11,GGTGCGTTTT,1.33
12,GGTGCTAGGG,0.995
13,GGTGGAAAA,0.987
14,GGTGGAAACA,0.972
15,GGTGGAAGGT,1.01
16,GGTGGACATC,0.968
17,GGTGGACTAG,1.08
18,GGTGGCACCT,1.04
19,GGTGGCGCCC,1.01
